{"source": "paper PMC9911399", "about": "“Two distinct binding modes provide the RNA-binding protein RbFox with extraordinary sequence specificity”", "binders": {"B1": {"name": "UCACGUG (DNA:RNA)", "RNA": "GGGAGACCGGAAUUCAGAUUGUCCUCACGUGUUAAAUCCCGUCGUAGCCACCA", "DNA 1": "CAATCTGAATTCCGGTCTCCC", "DNA 2": "TGGTGGCTACGACGGGATT"}, "B2": {"name": "GAGCCGA (DNA:RNA)", "RNA": "B1 RNA with U25G, C26A, A27G, G29C, U30G, G31A", "DNA 1": "CAATCTGAATTCCGGTCTCCC", "DNA 2": "TGGTGGCTACGACGGGATT"}, "B3": {"name": "CCCGUGC (DNA:RNA)", "RNA": "B1 RNA with U25C, A27C, C28G, G29U, U30G, G31C", "DNA 1": "CAATCTGAATTCCGGTCTCCC", "DNA 2": "TGGTGGCTACGACGGGATT"}, "B4": {"name": "GAGAGUA (DNA:RNA)", "RNA": "B1 RNA with U25G, C26A, A27G, C28A, G31A", "DNA 1": "CAATCTGAATTCCGGTCTCCC", "DNA 2": "TGGTGGCTACGACGGGATT"}, "B5": {"name": "AAGAUCA (DNA:RNA)", "RNA": "GGGAGACCGGAAUUCAGAUUGUCCAAGAUCAUUAAAUCCCGUCGUAGCCACCA", "DNA 1": "CAATCTGAATTCCGGTCTCCC", "DNA 2": "TGGTGGCTACGACGGGATT"}, "B6": {"name": "AUACCCC (DNA:RNA)", "RNA": "B5 RNA with A26U, G27A, A28C, U29C, A31C", "DNA 1": "CAATCTGAATTCCGGTCTCCC", "DNA 2": "TGGTGGCTACGACGGGATT"}, "B7": {"name": "CUACUAU (DNA:RNA)", "RNA": "B1 RNA with U25C, C26U, G29U, U30A, G31U", "DNA 1": "CAATCTGAATTCCGGTCTCCC", "DNA 2": "TGGTGGCTACGACGGGATT"}, "B8": {"name": "ACUAUUG (DNA:RNA)", "RNA": "B5 RNA with A26C, G27U, C30U, A31G", "DNA 1": "CAATCTGAATTCCGGTCTCCC", "DNA 2": "TGGTGGCTACGACGGGATT"}, "B9": {"name": "UGCAACA (DNA:RNA)", "RNA": "B5 RNA with A25U, A26G, G27C, U29A", "DNA 1": "CAATCTGAATTCCGGTCTCCC", "DNA 2": "TGGTGGCTACGACGGGATT"}, "B10": {"name": "GAGACCA (DNA:RNA)", "RNA": "B5 RNA with A25G, U29C", "DNA 1": "CAATCTGAATTCCGGTCTCCC", "DNA 2": "TGGTGGCTACGACGGGATT"}, "B11": {"name": "GGGGCCA (DNA:RNA)", "RNA": "B5 RNA with A25G, A26G, A28G, U29C", "DNA 1": "CAATCTGAATTCCGGTCTCCC", "DNA 2": "TGGTGGCTACGACGGGATT"}, "B12": {"name": "AGCAACA (DNA:RNA)", "RNA": "B5 RNA with A26G, G27C, U29A", "DNA 1": "CAATCTGAATTCCGGTCTCCC", "DNA 2": "TGGTGGCTACGACGGGATT"}, "B13": {"name": "GUGUGGA (DNA:RNA)", "RNA": "B5 RNA with A25G, A26U, A28U, U29G, C30G", "DNA 1": "CAATCTGAATTCCGGTCTCCC", "DNA 2": "TGGTGGCTACGACGGGATT"}, "B14": {"name": "UAGGAGG (DNA:RNA)", "RNA": "B5 RNA with A25U, A28G, U29A, C30G, A31G", "DNA 1": "CAATCTGAATTCCGGTCTCCC", "DNA 2": "TGGTGGCTACGACGGGATT"}, "B15": {"name": "GCUGAGA (DNA:RNA)", "RNA": "B5 RNA with A25G, A26C, G27U, A28G, U29A, C30G", "DNA 1": "CAATCTGAATTCCGGTCTCCC", "DNA 2": "TGGTGGCTACGACGGGATT"}, "B16": {"name": "UCCCAAU (DNA:RNA)", "RNA": "B1 RNA with A27C, G29A, U30A, G31U", "DNA 1": "CAATCTGAATTCCGGTCTCCC", "DNA 2": "TGGTGGCTACGACGGGATT"}, "B17": {"name": "AUUCUAC (DNA:RNA)", "RNA": "B5 RNA with A26U, G27U, A28C, C30A, A31C", "DNA 1": "CAATCTGAATTCCGGTCTCCC", "DNA 2": "TGGTGGCTACGACGGGATT"}, "B18": {"name": "UCGAAUU (DNA:RNA)", "RNA": "B1 RNA with A27G, C28A, G29A, G31U", "DNA 1": "CAATCTGAATTCCGGTCTCCC", "DNA 2": "TGGTGGCTACGACGGGATT"}, "B19": {"name": "AGACGGC (DNA:RNA)", "RNA": "B1 RNA with U25A, C26G, U30G, G31C", "DNA 1": "CAATCTGAATTCCGGTCTCCC", "DNA 2": "TGGTGGCTACGACGGGATT"}, "B20": {"name": "GCAAACU (DNA:RNA)", "RNA": "B5 RNA with A25G, A26C, G27A, U29A, A31U", "DNA 1": "CAATCTGAATTCCGGTCTCCC", "DNA 2": "TGGTGGCTACGACGGGATT"}, "B21": {"name": "GACGCGG (DNA:RNA)", "RNA": "B5 RNA with A25G, G27C, A28G, U29C, C30G, A31G", "DNA 1": "CAATCTGAATTCCGGTCTCCC", "DNA 2": "TGGTGGCTACGACGGGATT"}, "B22": {"name": "GCCCUGA (DNA:RNA)", "RNA": "B5 RNA with A25G, A26C, G27C, A28C, C30G", "DNA 1": "CAATCTGAATTCCGGTCTCCC", "DNA 2": "TGGTGGCTACGACGGGATT"}, "B23": {"name": "CCAUCGC (DNA:RNA)", "RNA": "B1 RNA with U25C, C28U, G29C, U30G, G31C", "DNA 1": "CAATCTGAATTCCGGTCTCCC", "DNA 2": "TGGTGGCTACGACGGGATT"}, "B24": {"name": "AAGUCGC (DNA:RNA)", "RNA": "B5 RNA with A28U, U29C, C30G, A31C", "DNA 1": "CAATCTGAATTCCGGTCTCCC", "DNA 2": "TGGTGGCTACGACGGGATT"}, "B25": {"name": "CGCUCGC (DNA:RNA)", "RNA": "GGGAGACCGGAAUUCAGAUUGUCCCGCUCGCUUAAAUCCCGUCGUAGCCACCA", "DNA 1": "CAATCTGAATTCCGGTCTCCC", "DNA 2": "TGGTGGCTACGACGGGATT"}, "B26": {"name": "UCUUUAU (DNA:RNA)", "RNA": "B1 RNA with A27U, C28U, G29U, U30A, G31U", "DNA 1": "CAATCTGAATTCCGGTCTCCC", "DNA 2": "TGGTGGCTACGACGGGATT"}, "B27": {"name": "GUACUGU (DNA:RNA)", "RNA": "B1 RNA with U25G, C26U, G29U, U30G, G31U", "DNA 1": "CAATCTGAATTCCGGTCTCCC", "DNA 2": "TGGTGGCTACGACGGGATT"}, "B28": {"name": "CUGCCCG (DNA:RNA)", "RNA": "B5 RNA with A25C, A26U, A28C, U29C, A31G", "DNA 1": "CAATCTGAATTCCGGTCTCCC", "DNA 2": "TGGTGGCTACGACGGGATT"}, "B29": {"name": "UCGUGCC (DNA:RNA)", "RNA": "B1 RNA with A27G, C28U, U30C, G31C", "DNA 1": "CAATCTGAATTCCGGTCTCCC", "DNA 2": "TGGTGGCTACGACGGGATT"}, "B30": {"name": "CGUAUAU (DNA:RNA)", "RNA": "B5 RNA with A25C, A26G, G27U, C30A, A31U", "DNA 1": "CAATCTGAATTCCGGTCTCCC", "DNA 2": "TGGTGGCTACGACGGGATT"}, "B31": {"name": "UCUGCUU (DNA:RNA)", "RNA": "B1 RNA with A27U, C28G, G29C, G31U", "DNA 1": "CAATCTGAATTCCGGTCTCCC", "DNA 2": "TGGTGGCTACGACGGGATT"}}, "note": "Residue numbers refer to the chain shown, from its start. This is one part of the list.", "data": [{"molecular_target": "T1, RBFOX1 RRM (Homo sapiens, UniProt Q9NWB1 109-208)", "T1 sequence": "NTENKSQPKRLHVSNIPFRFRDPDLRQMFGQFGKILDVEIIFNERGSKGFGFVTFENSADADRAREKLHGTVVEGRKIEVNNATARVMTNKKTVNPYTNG", "test": "EMSA; HiTS-Eq, 1 nM pool, 10 min; buffer printed only for the single-RNA assays: 10 mM Tris pH 7.5, 150 mM NaCl, 3.4 mM EDTA, 0.001% NP-40, 30 C", "settings": "tags: His6 N-terminal (pET28a); label: 5' 32P", "summary_of_the_method": "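Purified wild-type or mutant RbFox RRM at increasing concentrations was equilibrated with 1 nM of 5′-radiolabelled RNA carrying 7 randomized nucleotides for 10 min in 50 µL. Unbound RNA was separated by 8% native PAGE and sequenced. Relative association constants came from read-count changes of each RNA species compared with the control reaction, normalised to the cognate motif.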", "values": [{"binder": "B1", "binding signal": "0.0117 KA relative to UGCAUGU"}, {"binder": "B2", "binding signal": "0.0102 KA relative to UGCAUGU"}, {"binder": "B3", "binding signal": "0.00736 KA relative to UGCAUGU"}, {"binder": "B4", "binding signal": "0.00819 KA relative to UGCAUGU"}, {"binder": "B5", "binding signal": "0.00541 KA relative to UGCAUGU"}, {"binder": "B6", "binding signal": "0.000891 KA relative to UGCAUGU"}, {"binder": "B7", "binding signal": "0.0035 KA relative to UGCAUGU"}, {"binder": "B8", "binding signal": "0.0094 KA relative to UGCAUGU"}, {"binder": "B9", "binding signal": "0.00988 KA relative to UGCAUGU"}, {"binder": "B10", "binding signal": "0.00587 KA relative to UGCAUGU"}, {"binder": "B11", "binding signal": "0.0283 KA relative to UGCAUGU"}, {"binder": "B12", "binding signal": "0.00318 KA relative to UGCAUGU"}, {"binder": "B13", "binding signal": "0.00854 KA relative to UGCAUGU"}, {"binder": "B14", "binding signal": "0.00616 KA relative to UGCAUGU"}, {"binder": "B15", "binding signal": "0.0165 KA relative to UGCAUGU"}, {"binder": "B16", "binding signal": "0.00226 KA relative to UGCAUGU"}, {"binder": "B17", "binding signal": "0.000861 KA relative to UGCAUGU"}, {"binder": "B18", "binding signal": "0.00946 KA relative to UGCAUGU"}, {"binder": "B19", "binding signal": "0.0105 KA relative to UGCAUGU"}, {"binder": "B20", "binding signal": "0.00432 KA relative to UGCAUGU"}, {"binder": "B21", "binding signal": "0.0147 KA relative to UGCAUGU"}, {"binder": "B22", "binding signal": "0.0189 KA relative to UGCAUGU"}, {"binder": "B23", "binding signal": "0.00309 KA relative to UGCAUGU"}, {"binder": "B24", "binding signal": "0.00852 KA relative to UGCAUGU"}, {"binder": "B25", "binding signal": "0.0204 KA relative to UGCAUGU"}, {"binder": "B26", "binding signal": "0.00512 KA relative to UGCAUGU"}, {"binder": "B27", "binding signal": "0.0156 KA relative to UGCAUGU"}, {"binder": "B28", "binding signal": "0.0183 KA relative to UGCAUGU"}, {"binder": "B29", "binding signal": "0.0166 KA relative to UGCAUGU"}, {"binder": "B30", "binding signal": "0.00367 KA relative to UGCAUGU"}, {"binder": "B31", "binding signal": "0.0204 KA relative to UGCAUGU"}]}]}
